The source gives no read counts; variants with many changes may rest on few reads.
B1: OR4K15 (parent)
chain: GUUAACGGUCAUAGGCCAUGGAAACUAGGAGCACCAUUUCGCUGCCAGUGAAGAAAUGAACAAAGAAAAUCUGGGCCAGGCAGGCAUCAAAAGAAAUAGUCUUGCGCUCAACCAGAAAGUCUGUAAUCAUUUUAAGGGUA

Variants of: B1
Test: self-cleavage, relative activity (ratio to wild type); higher = more cleavage; in vitro, sequencing; the parent is a self-cleaving ribozyme

Row | Variant | self-cleavage
1 | C71A A110G A111G U131C | 0.01
2 | U70C U72C C105U A117U U131A | 0
3 | A22G A63U A118G | 0.9
4 | A22G A66G A67G | 1.42
5 | U39C A95G U130C | 2.18
6 | U37C A55G A66G U87C U102C | 0.76
7 | A55G U108C A111G A129G | 0
8 | U9C U19C U39A A68C U87C A125G U131C | 0.52
9 | A30U U57C U72C G80A A82U U133G | 0.21
10 | U12G A24G U38G C107A A117G | 0
11 | C17U A66G A90G U108C | 0.02
12 | U12C A89U A111U A118U | 0.01
13 | G50A A78G A129C | 0.23
14 | A23G A54G A62G U127C | 1.51
15 | A24G G79U G104A | 0.03
16 | A51G A82U U139C | 0.18
17 | U43C A55G U72C | 0.12
18 | A4G U39C A69U | 1.04
19 | U43C U103C A116G | 0.28
20 | U9A A90G A135G | 0.89
21 | A54G U57C A62G A91U U120C | 0.9

Row | Variant | self-cleavage
22 | A18G A89G U139A | 1.77
23 | U19C A24C U70C A111G | 0.02
24 | A60G A86G U87C G104A A110C | 0
25 | A51U G99C A134G | 0.3
26 | A27U G28U A55G A86G U122A | 1.63
27 | U19A G53A U108A | 0.04
28 | A51C U72A A91G | 0.15
29 | U49C A56G U108C U139C | 0.01
30 | A23U U39C A117G U124C | 0.43
31 | A52G A114C U122C | 0.02
32 | A66U A95G A111G U130C U133C | 0
33 | A92U A94U U102C | 2.04
34 | A13G A30U A60G U122C | 0.6
35 | A54G A69G U131C | 0.43
36 | A51G A110U A114G | 0.43
37 | G50A A51G A54G A82G | 0.66
38 | A5G A30G C46U A51G | 0.96
39 | A18U U39C A114U | 0.15
40 | G15A A23G U43C U97C U131C | 1.95
41 | U38C A54G A114U | 0.08
42 | G65C U97A A98U A114G U120A U130C | 0.71

Row | Variant | self-cleavage
43 | U9C A69G C105U | 0.24
44 | A30U A59U A69G A125G A126G | 0.33
45 | A13G U108C A114U A117U A126G A129G | 0
46 | A52U A63G A89G A91G | 1.75
47 | U38A A60G A94G A126G | 0.2
48 | U108C A111G A135G G137A | 0.01
49 | A5G A18G U39A A51U U108A | 0.06
50 | A47G A55G U108C A135G | 0.01
51 | U3C A59U A67G | 1.47
52 | U3C A64C A94G U131C | 0.56
53 | A51U A55G A62G | 1.29
54 | A56G U57A U103C A116G | 0.06
55 | U12A C35U A116G A117G | 0.8
56 | A55G A66G A116G U122C | 1.64
57 | U2C G20A U26C A33G U37C C40U A94G | 0.15
58 | U12A U38G C42U U57C A63G | 0.19
59 | U87A A92G A117G | 2.22
60 | A22G A86G A111U | 0
61 | A78G C105G A118G U120C U122C | 0.01
62 | A22G G104A A110G | 0.01
63 | U39A A55G A117G U130C | 2.41

Row | Variant | self-cleavage
64 | U39C A52G A56G A110G A129G | 0.07
65 | A4G A27C A56G G73U U131C | 0.18
66 | A5G U26C A98U | 1.21
67 | C46U U100C U120C A125G | 1.21
68 | A51G A82G U97C | 0.55
69 | A92G U102C G106A C128U | 0.01
70 | A33U G58A U108C A117G | 0.01
71 | U9C C16U A23G U38C A59G A116G U132C | 1.1
72 | A54G A118G U133C | 1.88
73 | A27G A51U U130C | 0.5
74 | U49C A60G U131C | 0.52
75 | A60G A62G U103A U130C | 0.2
76 | U37C A94G C107A | 0.03
77 | U19C A23G U131C A135U | 2.12
78 | A52G A69G A135G | 1.21
79 | A22G U70C A111G | 0.03
80 | A11G U38C G41U | 1.77
81 | U39A U43C A82U U133G | 0.12
82 | U9C C17U A36G U57G U103C | 0.09
83 | U2A U19C A22G A51G | 0.96
84 | A24G U49C U127C | 0.55

— the RNAGym collection of RNA variant scans (doi:10.7554/elife.90254)
